Measurements as given in patent publication US20260226127A1 (ASCENDIS PHARMA ONCOLOGY DIVISION A S, published 2026).

Tests used:
[1] = biological target: T1, Human IL-2 Receptor alpha, Fc-Tag (human, UniProt P01589 22-240); experiment: SPR (Biacore T200), receptor-Fc captured on anti-human Fc CM5 chip, IL-2 compound as analyte, 25 C
T1 construct: extracellular domain; Bought from Symansis, New Zealand; also called IL-2Rα; CD25
Description: (§1) For the determination of binding kinetics to IL-2Rα the following chip preparation was used: Human IL-2 Receptor alpha, Fc-Tag (Symansis, New Zealand) was diluted in HBS-EP running buffer (GE Healthcare, 10 mM HEPES, 150 mM NaCl, 3 mM EDTA, 0.05% Surfactant P20, pH 7.4) to approx. 0.67 μg/mL and immobilized at a flow rate of 10 μL/min for 60 s to achieve 80-100 response units (RU).
as §1, with “IL-2Rβ” for “IL-2Rα”, “beta,” for “alpha,”, “around 0.80” for “approx. 0.67”, “140-180” for “80-100”
(§2) For kinetic measurements on all three receptor subunit setups, Aldesleukin or biased IL-2 compounds were analysed in multi-cycle kinetics and therefore injected in at least five different concentrations in HBS-EP running buffer at 25° C. (30 μL/min flow rate, 120 s contact time, 600 s dissociation time). Double referenced data (subtracted data from the reference flow cell and the buffer only samples) was, if possible analysed either kinetically via a 1:1 binding model or via steady-state analysis (Biacore T200 Evaluation Software, Version 3.1) to determine KD and if possible, kₐ and kd. […]

[2] = biological target: T2, Human IL-2 Receptor beta, Fc-Tag (human, UniProt P14784 27-240); experiment: as above
T2 construct: extracellular domain; Bought from Symansis, New Zealand; also called IL-2Rβ; CD122
Description: as §1
as §1, with “IL-2Rβ” for “IL-2Rα”, “beta,” for “alpha,”, “around 0.80” for “approx. 0.67”, “140-180” for “80-100”
as §2

[3] = biological target: T3, IL-2Rαβ complex (Human IL-2 Receptor alpha, Fc-Tag and Human IL-2 Receptor beta, Fc-Tag, mixed and … (human, UniProt P01589 22-240; P14784 27-240); experiment: SPR (Biacore T200), IL-2Rα-Fc and IL-2Rβ-Fc captured together on anti-human Fc CM5 chip, IL-2 compound as analyte, 25 C
T3 construct: extracellular domain; Not a covalent heterodimer: the two Fc-tagged subunits were mixed (around 1.33 µg/mL each) and captured together on the anti-human Fc chip; not shown: Fc-Tag of the bought product (Symansis)
T3 sequence (looked up) 1: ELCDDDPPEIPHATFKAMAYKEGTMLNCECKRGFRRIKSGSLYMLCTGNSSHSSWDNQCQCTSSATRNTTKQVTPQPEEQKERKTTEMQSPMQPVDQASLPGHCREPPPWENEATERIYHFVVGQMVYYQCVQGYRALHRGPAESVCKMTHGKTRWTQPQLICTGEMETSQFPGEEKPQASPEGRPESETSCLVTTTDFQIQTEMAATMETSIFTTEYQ
T3 sequence (looked up) 2: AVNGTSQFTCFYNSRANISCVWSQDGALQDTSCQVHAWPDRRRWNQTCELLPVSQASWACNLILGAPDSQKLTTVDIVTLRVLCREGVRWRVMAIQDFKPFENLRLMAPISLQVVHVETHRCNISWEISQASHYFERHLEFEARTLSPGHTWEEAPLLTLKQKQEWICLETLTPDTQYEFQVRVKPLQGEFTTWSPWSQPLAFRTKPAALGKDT
Description: For the determination of binding kinetics to the IL-2Rαβ complex the following chip preparation was used: Human IL-2 Receptor alpha, Fc-Tag (Symansis, New Zealand) and Human IL-2 Receptor beta, Fc-Tag (Symansis, New Zealand) were mixed and diluted in HBS-EP running buffer (GE Healthcare, 10 mM HEPES, 150 mM NaCl, 3 mM EDTA, 0.05% Surfactant P20, pH 7.4) to around 1.33 μg/mL each and were immobilized at a flow rate of 10 μL/min for 60 s to achieve 360-440 response units (RU).
For kinetic measurements on all three receptor subunit setups, Aldesleukin or biased IL-2 compounds were analysed in multi-cycle kinetics and therefore injected in at least five different concentrations in HBS-EP running buffer at 25° C. (30 μL/min flow rate, 120 s contact time, 600 s dissociation time). Double referenced data (subtracted data from the reference flow cell and the buffer only samples) was, if possible analysed either kinetically via a 1:1 binding model or via steady-state analysis (Biacore T200 Evaluation Software, Version 3.1) to determine KD and if possible, kₐ and kd. Regeneration after each cycle was performed with 3 M MgCl₂ for 30 s at a flow rate of 30 μL/min.

Chain of Human IL-2 Receptor beta, Fc-Tag (P14784 whole entry, the tested form may be a part): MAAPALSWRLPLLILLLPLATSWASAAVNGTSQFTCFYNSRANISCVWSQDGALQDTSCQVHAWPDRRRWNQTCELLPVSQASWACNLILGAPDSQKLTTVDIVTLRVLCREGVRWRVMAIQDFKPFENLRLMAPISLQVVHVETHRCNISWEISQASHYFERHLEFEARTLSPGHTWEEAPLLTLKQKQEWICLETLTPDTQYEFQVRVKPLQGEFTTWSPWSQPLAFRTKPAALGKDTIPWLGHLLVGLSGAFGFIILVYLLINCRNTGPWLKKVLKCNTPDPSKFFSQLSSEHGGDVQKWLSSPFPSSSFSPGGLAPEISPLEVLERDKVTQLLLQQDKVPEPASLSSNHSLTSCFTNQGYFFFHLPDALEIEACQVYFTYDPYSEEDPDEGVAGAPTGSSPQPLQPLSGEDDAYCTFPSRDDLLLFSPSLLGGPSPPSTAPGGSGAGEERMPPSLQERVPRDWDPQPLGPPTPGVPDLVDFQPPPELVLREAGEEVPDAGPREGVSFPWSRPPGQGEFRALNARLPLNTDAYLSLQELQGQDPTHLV

- Kd [1]: 5.65 nM
- Kd [2]: 287 nM
- Kd [3]: 0.141 nM
B1: Aldesleukin (recombinant human IL-2, desA1, C125S) (ligand)
chain: not shown
notes: Bought from Peprotech (catalog AF-200-02)
